The other results are listed elsewhere or left out.
B1: PhoQ; a variant is named by its letters at X, in order, P23837 (parent)
chain: MKKLLRLFFPLSLRVRFLLATAAVVLVLSLAYGMVALIGYSVSFDKTTFRLLRGESNLFYTLAKWENNKLHVELPENIDKQSPTMTLIYDENGQLLWAQRDVPWLMKMIQPDWLKSNGFHEIEADVNDTSLLLSGDHSIQQQLQEVREDDDDAEMTHSVAVNVYPATSRMPKLTIVVVDTIPVELKSSYMVWSWFIYVLSANLLLVIPLLWVAAWWSLRPIEALAKEVRELEEHNRELLNPATTRELTSLVRNLNRLLKSERERYDKYRTTLTDLTHSLKTPLXXLQXXLRSLRSEKMSVSDAEPVMLEQISRISQQIGYYLHRASMRGGTLLSRELHPVAPLLDNLTSALNKVYQRKGVNISLDISPEISFVGEQNDFVEVMGNVLDNACKYCLEFVEISARQTDEHLYIVVEDDGPGIPLSKREVIFDRGQRVDTLRPGQGVGLAVAREITEQYEGKIVAGESMLGGARMEVIFGRQHSAPKDE

Variants of: B1
Assay: enrichment ratio after two sorts for PhoP signalling (ratio (wild type AVST 3.29)); higher = more functional
Settings: with PhoP (E. coli)

Variant | enrichment ratio
WQLA | ≤ 0.25
HSYF | ≤ 0.25
LRGV | ≤ 0.25
NVWR | ≤ 0.25
QWSI | ≤ 0.25
EPSW | ≤ 0.25
YHEK | ≤ 0.25
GFSP | ≤ 0.25
AHPC | ≤ 0.25
SQIC | 8.67
PDAL | ≤ 0.25
DKQK | ≤ 0.25
NYPD | ≤ 0.25
GRLE | ≤ 0.25
GYDM | ≤ 0.25
KFSM | ≤ 0.25
WWFH | ≤ 0.25
PCFK | ≤ 0.25
SLLW | ≤ 0.25
NRFI | ≤ 0.25
MIYY | ≤ 0.25
AFII | ≤ 0.25
DKCH | ≤ 0.25
HFQN | ≤ 0.25

Variant | enrichment ratio
HQPI | ≤ 0.25
NPGC | ≤ 0.25
FSLC | 12.4
FCDT | ≤ 0.25
YWYF | ≤ 0.25
WTLT | ≤ 0.25
KHTS | ≤ 0.25
SSVK | ≤ 0.25
SGDR | ≤ 0.25
NSAH | ≤ 0.25
LWNM | ≤ 0.25
TRVF | ≤ 0.25
HRGL | ≤ 0.25
TKYK | ≤ 0.25
WEDW | ≤ 0.25
TACG | 8.73
VKWA | ≤ 0.25
SGQM | 14.7
GKQC | ≤ 0.25
DHSL | ≤ 0.25
PHWA | ≤ 0.25
ITVV | ≤ 0.25
PCFL | ≤ 0.25
KEHV | ≤ 0.25

Variant | enrichment ratio
MKAA | ≤ 0.25
THMG | 2.89
RDVA | ≤ 0.25
FMLS | ≤ 0.25
LSDI | ≤ 0.25
IQAW | ≤ 0.25
MFAW | ≤ 0.25
DKKR | ≤ 0.25
FSPE | ≤ 0.25
NYVG | ≤ 0.25
TQDP | ≤ 0.25
KRRT | ≤ 0.25
LFKE | ≤ 0.25
QTGN | ≤ 0.25
GKGM | ≤ 0.25
ASWD | ≤ 0.25
QHVN | ≤ 0.25
NIRQ | ≤ 0.25
YNRG | ≤ 0.25
FFQV | ≤ 0.25
GYWF | ≤ 0.25
HLKH | ≤ 0.25
QMSE | 3.77
KGIP | ≤ 0.25

Variant | enrichment ratio
EDNL | ≤ 0.25
NRLS | ≤ 0.25
MLNK | ≤ 0.25
LVGT | ≤ 0.25
DVVQ | ≤ 0.25
RRHK | ≤ 0.25
DPHF | ≤ 0.25
TNGP | ≤ 0.25
RWHF | ≤ 0.25
ARWS | ≤ 0.25
LHIH | ≤ 0.25
SELI | 24.6
VLDD | ≤ 0.25
QNYA | ≤ 0.25
WARA | ≤ 0.25
QQET | ≤ 0.25
YPMI | ≤ 0.25
MPYY | ≤ 0.25
PRFI | ≤ 0.25
NCGW | ≤ 0.25
PRKL | ≤ 0.25
NCDY | ≤ 0.25
PWHR | ≤ 0.25
SFWT | ≤ 0.25

Variant | enrichment ratio
KSNQ | ≤ 0.25
MPFK | ≤ 0.25
DDAR | ≤ 0.25
YCFW | ≤ 0.25
IGVH | ≤ 0.25
NDPK | ≤ 0.25
PCYS | ≤ 0.25
DCIP | ≤ 0.25
TDCS | 11.3
HSLR | ≤ 0.25
TEKY | ≤ 0.25
RGCR | ≤ 0.25
PATP | ≤ 0.25
SQEC | ≤ 0.25
KIPI | ≤ 0.25
TPFK | ≤ 0.25
KQKD | ≤ 0.25
LKDG | ≤ 0.25
DVEN | ≤ 0.25
KPPC | ≤ 0.25
TVNP | ≤ 0.25
WTNF | ≤ 0.25
HFNN | ≤ 0.25
ILPH | ≤ 0.25

Variant | enrichment ratio
FMKP | ≤ 0.25
WHSW | ≤ 0.25
ATPA | ≤ 0.25
RKGI | ≤ 0.25
NVES | ≤ 0.25
IQCM | ≤ 0.25
TYFT | ≤ 0.25
SAFG | ≤ 0.25
IMGD | ≤ 0.25
WMDG | ≤ 0.25
PTGR | ≤ 0.25
ERGH | ≤ 0.25
TNNN | 14.7
TPDG | ≤ 0.25
MFMG | ≤ 0.25
KTCP | ≤ 0.25
YTAC | ≤ 0.25
AEIQ | 24.4
HPNY | ≤ 0.25
YIYI | ≤ 0.25
FNLW | ≤ 0.25
SWRL | ≤ 0.25
PYSA | ≤ 0.25
GCCS | 2.84

Variant | enrichment ratio
SCTS | 14.9
SQLQ | 13.6
RSWT | ≤ 0.25
MKGG | ≤ 0.25
EHSA | ≤ 0.25
LNDR | ≤ 0.25
MVVN | ≤ 0.25
NELA | ≤ 0.25
FFAR | ≤ 0.25
YLRQ | ≤ 0.25
SCRH | ≤ 0.25
PYCD | ≤ 0.25
KLQC | ≤ 0.25
DITS | ≤ 0.25
PFWS | ≤ 0.25
FFAA | ≤ 0.25
FWCQ | ≤ 0.25
APFD | ≤ 0.25
QDHA | ≤ 0.25
HMSA | ≤ 0.25
KPLA | ≤ 0.25
ENIS | ≤ 0.25
QIQG | ≤ 0.25
HYND | ≤ 0.25

Variant | enrichment ratio
HWFQ | ≤ 0.25
GDFF | ≤ 0.25
HGPA | ≤ 0.25
HFYY | ≤ 0.25
EYHD | ≤ 0.25
EYYD | ≤ 0.25
MDAC | ≤ 0.25
IQHD | ≤ 0.25
VKET | ≤ 0.25
KPHL | ≤ 0.25
FSTH | ≤ 0.25
MPPD | ≤ 0.25
VGEM | ≤ 0.25
NCDH | ≤ 0.25
FMMT | ≤ 0.25
NICS | ≤ 0.25
HCTH | ≤ 0.25
TSSN | 9.75
RDIM | ≤ 0.25
ENYD | ≤ 0.25
FETA | ≤ 0.25
QCPA | ≤ 0.25
LHHD | ≤ 0.25
WRDP | ≤ 0.25

Variant | enrichment ratio
ALFM | ≤ 0.25
RTHT | ≤ 0.25
SAFI | ≤ 0.25
FAKH | ≤ 0.25
DCDK | ≤ 0.25
SHKC | ≤ 0.25
VWTG | ≤ 0.25
ASPA | ≤ 0.25
TRHT | ≤ 0.25
YSFG | ≤ 0.25
YGWR | ≤ 0.25
SAQM | 8.97
KTYQ | ≤ 0.25
QQPA | ≤ 0.25
LVCH | ≤ 0.25
PSRK | ≤ 0.25
DGCL | ≤ 0.25
NVKP | ≤ 0.25
EMAD | ≤ 0.25
DTCW | ≤ 0.25
GHQD | ≤ 0.25
HTML | 11.7
VWFM | ≤ 0.25
MCYI | 27.7

Variant | enrichment ratio
MHLG | ≤ 0.25
KYLH | ≤ 0.25
YSPI | ≤ 0.25
YNYR | ≤ 0.25
CWFR | ≤ 0.25
GWDI | ≤ 0.25
PSAS | ≤ 0.25
ISFA | ≤ 0.25
RNIG | ≤ 0.25
ILQS | ≤ 0.25
GVNW | ≤ 0.25
LMYM | ≤ 0.25
MCPC | 3.66
HFVE | ≤ 0.25
IIDI | ≤ 0.25
FILY | ≤ 0.25
LDFV | ≤ 0.25
ADKP | ≤ 0.25
APSQ | ≤ 0.25
GVAR | ≤ 0.25
HMVK | ≤ 0.25
DAKY | ≤ 0.25
ACTL | 15.2
DFKP | ≤ 0.25

Variant | enrichment ratio
DWFQ | ≤ 0.25
TEGV | 12.6
SKDG | ≤ 0.25
RCKH | ≤ 0.25
MLFD | ≤ 0.25
IESM | ≤ 0.25
NDTG | ≤ 0.25
WAPF | ≤ 0.25
DESY | ≤ 0.25
VPLE | ≤ 0.25
HEML | ≤ 0.25
LYNS | ≤ 0.25
VLKF | ≤ 0.25
TIWV | ≤ 0.25
VLPD | ≤ 0.25
YVMH | 0.338
PHCM | ≤ 0.25
WLTR | ≤ 0.25
FHPW | ≤ 0.25
NPWN | ≤ 0.25
VVQA | ≤ 0.25
LSLH | ≤ 0.25
GNHD | ≤ 0.25
FAHY | ≤ 0.25

Variant | enrichment ratio
YPQI | ≤ 0.25
RIYQ | ≤ 0.25
IRQH | ≤ 0.25
WCAG | ≤ 0.25
PESL | ≤ 0.25
MGRT | ≤ 0.25
DPLI | ≤ 0.25
YEWK | ≤ 0.25
DLTT | ≤ 0.25
WKPV | ≤ 0.25
GNMV | 3.49
LPPL | ≤ 0.25
WKVN | ≤ 0.25
LIVH | ≤ 0.25
IDIR | ≤ 0.25
DMHL | ≤ 0.25
YCQW | ≤ 0.25
MNPH | ≤ 0.25
RWSI | ≤ 0.25
KVLD | ≤ 0.25
VGLG | 7.34
LDIQ | ≤ 0.25
NPCT | ≤ 0.25
PREI | ≤ 0.25

Variant | enrichment ratio
FCHM | ≤ 0.25
FARN | ≤ 0.25
DDTC | ≤ 0.25
VPEL | ≤ 0.25
ETMG | ≤ 0.25
FLRF | ≤ 0.25
VVPD | ≤ 0.25
VPVF | ≤ 0.25
KEGH | ≤ 0.25
MEIW | ≤ 0.25
GPFQ | ≤ 0.25
EFFI | ≤ 0.25
DLGY | ≤ 0.25
YFQT | ≤ 0.25
HSHC | ≤ 0.25
IRCM | ≤ 0.25
INEC | ≤ 0.25
KLLN | ≤ 0.25

— a collection of fitness landscapes (doi:10.1126/science.1257360)
